From the supplement of paper PMC4967469

What was measured:
Test in all cases: Viability of human cancer cell lines after 72 h of drug (GDSC screen)
PI-103 = compound: Oc1cccc(-c2nc(N3CCOCC3)c3oc4ncccc4c3n2)c1 [PI-103]; settings: top dose 10.24 µM
Procedure: (§1)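 Human cancer cell lines in 384-well plates, medium with 10% serum, drug for 72 h over a 256-fold dose range (nine 2-fold or five 4-fold steps up to the top dose). Adherent lines were fixed and stained with the nucleic acid dye Syto60, suspension lines read with resazurin; signal relative to control wells, capped at 0 and 100%. One two-parameter sigmoid per drug and line, fitted in a mixed model over all curves with the slope shared within a line.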

Tretinoin = compound: CC1=C(/C=C/C(C)=C/C=C/C(C)=C/C(=O)O)C(C)(C)CCC1 [Tretinoin]; settings: top dose 10 µM; top dose inferred
Procedure: as §1

BX-795 = compound: O=C(NCCCNc1nc(Nc2cccc(NC(=O)N3CCCC3)c2)ncc1I)c1cccs1 [BX-795]; settings: top dose 5 µM; top dose inferred
Procedure: as §1

GSK690693 = compound: CCn1c(-c2nonc2N)nc2c(C#CC(C)(C)O)ncc(OC[C@H]3CCCNC3)c21 [GSK690693]; settings: top dose 10.24 µM; top dose inferred
Procedure: as §1

SB-505124 = compound: Cc1cccc(-c2[nH]c(C(C)(C)C)nc2-c2ccc3c(c2)OCO3)n1 [SB-505124]; settings: top dose 10 µM; top dose inferred
Procedure: as §1

UNC0638 = compound: COc1cc2c(NC3CCN(C(C)C)CC3)nc(C3CCCCC3)nc2cc1OCCCN1CCCC1 [UNC0638]
Procedure: as §1

[1] = top dose 20 µM, screen: GDSC drug entry 1236, top dose inferred
[2] = top dose 40 µM, screen: GDSC drug entry 245

In the case of Hs-578-T (breast, adherent), the AUC (PI-103) is reported as 0.987, the IC50 (PI-103) is reported as > 10.2 µM and the AUC (Tretinoin) is reported as 0.891. For the same cell line, the IC50 (Tretinoin) was > 10 µM, the AUC (BX-795) was 0.825 and the IC50 (BX-795) was 3.24 µM. For the same cell line, the AUC (GSK690693) was 0.987, the IC50 (GSK690693) was > 10.2 µM and the AUC (SB-505124) was 0.968. The IC50 (SB-505124) was > 10 µM, the AUC (UNC0638; [1]) was 0.973 and the IC50 (UNC0638; [1]) was > 20 µM. The AUC (UNC0638; [2]) was 0.986 and the IC50 (UNC0638; [2]) was > 40 µM.

HuCCT1 (biliary tract, adherent) showed an AUC (PI-103) of 0.562, an IC50 (PI-103) of 0.967 µM and an AUC (Tretinoin) of 0.961. For the same cell line, the IC50 (Tretinoin) was > 10 µM, the AUC (BX-795) was 0.891 and the IC50 (BX-795) was > 5 µM. For the same cell line, the AUC (GSK690693) was 0.954, the IC50 (GSK690693) was > 10.2 µM and the AUC (SB-505124) was 0.982. The IC50 (SB-505124) was > 10 µM, the AUC (UNC0638; [1]) was 0.811 and the IC50 (UNC0638; [1]) was 12.1 µM. It also gave an AUC (UNC0638; [2]) of 0.741 and an IC50 (UNC0638; [2]) of 13.4 µM.

With HuO9 (osteosarcoma, adherent) the AUC (PI-103) was 0.52, the IC50 (PI-103) was 0.73 µM and the AUC (Tretinoin) was 0.802. It also gave an IC50 (Tretinoin) of 5.54 µM, an AUC (BX-795) of 0.8 and an IC50 (BX-795) of 2.72 µM. The AUC (GSK690693) was 0.982, the IC50 (GSK690693) was > 10.2 µM and the AUC (SB-505124) was 0.966. The IC50 (SB-505124) was > 10 µM, the AUC (UNC0638; [1]) was 0.747 and the IC50 (UNC0638; [1]) was 7 µM. The AUC (UNC0638; [2]) was 0.954 and the IC50 (UNC0638; [2]) was > 40 µM.

Work on HuO-3N1 (osteosarcoma, adherent) yielded an AUC (PI-103) of 0.731, an IC50 (PI-103) of 3.64 µM and an AUC (Tretinoin) of 0.803. For the same cell line, the IC50 (Tretinoin) was 6.94 µM, the AUC (BX-795) was 0.854 and the IC50 (BX-795) was > 5 µM. For the same cell line, the AUC (GSK690693) was 0.925, the IC50 (GSK690693) was > 10.2 µM and the AUC (SB-505124) was 0.977. For the same cell line, the IC50 (SB-505124) was > 10 µM, the AUC (UNC0638; [1]) was 0.793 and the IC50 (UNC0638; [1]) was 12.5 µM. For the same cell line, the AUC (UNC0638; [2]) was 0.745 and the IC50 (UNC0638; [2]) was 16.1 µM.

A lower IC50 marks a more sensitive line; where the fit passes the top or lowest dose, that dose stands as a limit. AUC, from the same fit, is the share of area under the viability curve across the 256-fold dose range: 1 means no effect, lower means more sensitive. For some assays here: Where the top dose is marked as inferred, it was calculated from the reported fits. For some assays here: An entry number marks a drug with two screens in the source, which often give different values.
